These results are taken from ChEMBL document CHEMBL1201862, “PubChem BioAssay data set” (2004).

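In this assay, cells in 96-well plates receive the compound at five concentrations for 48 hours. Endpoints are linearly interpolated between the surrounding concentrations. At the GI50, growth is halved.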 Active and inactive are the calls of the source. Cut-off read from the data, not from the text of the source: active = GI50 up to about 1.1 µM and inactive = higher.

For orientation: GI50 means the concentration at which growth is held to half of that of the control.

For the experiment, the system named is NCI-H322M. Briefly: DTP human tumour cell line panel, 48 h.
As to `N#C/C(=C\Nc1ccccn1)C(=O)c1ccco1`, the GI50 is inactive: > 100 µM.
To `Cc1ccc2c(c1)c1ccc3c(c1n2C)C(=O)C=CC3=O` belongs inactive: > 10 µM; to `COc1cccc([C@@H]2CC(=O)c3cc4c(cc3N2)OCO4)c1`, inactive: > 100 µM.
To `Nc1ccc2nc3c(nc2c1)C(=O)c1ccccc1-3` belongs inactive: > 100 µM; to `CN(C)CCNC1=C(Cl)C(=O)c2c(O)ccc(O)c2C1=O`, inactive: 2.35 µM.
As to `Nc1nc(Cl)cc(NCC2(CO)CC(c3ccccc3)C2)n1` (stereo not given), the GI50 is inactive: > 100 µM.
As for `COc1cc2c(cc1OC)C(=O)N(NC1=NCCN1)C2=O`, the figure is inactive: > 100 µM.
To `Cc1nc(N)c(N2CCN(C#N)CC2)c(O)n1` belongs inactive: > 100 µM.
Consider `COC1CCCCN1C(=O)c1ccccc1` (stereo not given), for which the GI50 was inactive: > 25.3 µM.
As for `O=C(CCc1cc(O)cc(O)c1)NCCc1cc(OCc2ccccc2)cc(OCc2ccccc2)c1`, the figure is inactive: 18.9 µM.
`CC(=O)Oc1ccc(Nn2c3ccccc3c3ccccc32)c(C)c1`: the GI50 is inactive: > 100 µM.
To `C1CN(c2nc3c(nnc4nc(N5CCOCC5)sc43)s2)CCO1` belongs inactive: 56.1 µM.
As for `COc1ccc(CC#C/C=C/C(=O)NCC(C)C)cc1`, the figure is inactive: > 100 µM.
Regarding `Oc1cc2cc(O)nc(O)c2c(O)n1`, the GI50 is inactive: > 100 µM.
As for `COc1cc([C@@H]2c3cc4c(cc3[C@H](OC3OC5COC(c6ccco6)OC5C(O)C3O)C3COC(=O)[C@@H]32)OCO4)cc(OC)c1OC` (stereo not given in full), the figure is inactive: 4.24 µM; as for `COC(=O)C(CCCCN)NC(C)=O.Cc1ccc(C(=O)Nc2ccc(S(=O)(=O)O)c3cc(S(=O)(=O)O)cc(S(=O)(=O)O)c23)cc1NC(=O)c1cccc(NC(=O)Nc2cccc(C(=O)Nc3cc(C(=O)Nc4ccc(S(=O)(=O)O)c5cc(S(=O)(=O)O)cc(S(=O)(=O)O)c45)ccc3C)c2)c1`, inactive: > 50 µM.
As for `Nc1nc(CC2(O)CCCCC2)cc(-c2ccccc2)n1`, the figure is inactive: > 55.8 µM; as for `COc1ccc2c(c1)OCCC1=C2SCC2(C)CCN=C12` (stereo not given), inactive: > 100 µM.
As for `CSC(SC)(C(=O)O)c1cc(-c2c(Cl)cccc2Cl)no1`, the GI50 was inactive: 21.9 µM.
To `CCOC(=O)c1sc(Nc2cc(Cl)ccc2Cl)nc1C` belongs inactive: > 100 µM; to `CCc1ccc(Nc2cc(=O)n(C)c(SCc3ccccc3)n2)cc1`, inactive: > 100 µM.
For `O=C1Cc2c(-c3ccccc3)cc(-c3ccc(Cl)cc3)nc2-c2ccccc2N1`, the GI50 is inactive: 4.01 µM.
For `C=C1C2Oc3ccccc3C1N(c1ccccc1)O2` (stereo not given), the GI50 is inactive: > 100 µM.
As for `C=CCC1(c2ccc(OC)cc2)C=CC(=O)CC1` (stereo not given), the figure is inactive: > 100 µM; as for `COc1ccc2nc(-c3ccc(O)cc3)cn2c1`, inactive: 92.5 µM; as for `Fc1ccc(C(OCCN2CCC3CCC(C2)N3C/C=C/c2cccnc2)c2ccc(F)cc2)cc1` (stereo not given), inactive: 13.6 µM.
On to `C=C(C)c1nc(C#N)c(N)o1`, for which the GI50 was inactive: > 100 µM.
As for `O=C1[C@H]2ON(c3ccccc3)C(c3ccc([N+](=O)[O-])cc3)[C@H]2C(=O)N1c1ccc(Cc2ccc(N3C(=O)[C@@H]4ON(c5ccccc5)C(c5ccc([N+](=O)[O-])cc5)[C@@H]4C3=O)cc2)cc1` (stereo not given in full), the figure is inactive: > 100 µM; as for `Cc1ccc([S+]([O-])(=Nc2ccccc2)C(C(C)C)C(C)(C)Cl)cc1` (stereo not given), inactive: 4.04 µM.
On to `O=C(/C=C/c1ccc([N+](=O)[O-])cc1)N1CCN(CCOC(c2ccc(F)cc2)c2ccc(F)cc2)CC1`, for which the GI50 was inactive: 83 µM.
To `Cc1ccc(S(=O)(=O)N2CCC[C@@H]2C(=O)O[C@@H]2CCC3CC=CC32)cc1` (stereo not given in full) belongs inactive: 64.1 µM; to `CCN(CC)CCn1c2ccccc2c(=O)c2c(OC)ccc(OC)c21`, inactive: 52.1 µM; to `CCCCN(CCCC)/C(=N\C#N)NCc1ccccc1`, inactive: 24.3 µM.
As for `COc1ccc(-c2ccccc2)c(N/N=C2\CCCNC2=O)c1`, the figure is inactive: > 100 µM; as for `OCC1=C[C@@](COCc2ccccc2)(OCc2ccccc2)[C@@H](OCc2ccccc2)[C@@H]1OCc1ccccc1`, inactive: 18.2 µM; as for `COc1cccc(NC(=O)CC(=O)N2N=C(N(CCC#N)c3ccccc3C)CC2c2ccccc2)c1` (stereo not given), inactive: > 100 µM.
For `COCCNC(=O)C1C(=O)C(=O)N(CCOC)C1=O` (stereo not given), the GI50 was inactive: > 100 µM.
As for `Cc1ccc(S(=O)(=O)N/N=C2\CC(C)OC3=C2CCCCCC3)cc1` (stereo not given), the figure is inactive: 21.3 µM.
As for `CNC(=S)OCCC(C)CCCC(C)C` (stereo not given), the figure is inactive: 18.2 µM; as for `c1ccc2c(c1)CCCC/C2=N/OCC1CO1` (stereo not given), inactive: > 100 µM.
As for `CCSSCS(C)(=O)=O`, the figure is inactive: 53.1 µM; as for `CC[C@@H]1OC2(C)CC(S(=O)(=O)c3ccccc3O)CC1O2` (stereo not given in full), inactive: > 100 µM; as for `CC(C)/C(Cl)=N/OC(NC(=O)Nc1ccc(Cl)c(Cl)c1)(C(F)(F)F)C(F)(F)F`, inactive: 16.9 µM.
`CC(C)(C)[Si](C)(C)OCC1OC(n2ccc(=O)[nH]c2=O)C(O[Si](C)(C)C(C)(C)C)[C@]12O[C@@H]2CO` (stereo not given in full): the GI50 is inactive: 18.5 µM.
As for `CNC(=O)Nc1nc2cc([N+](=O)[O-])ccc2[nH]1`, the figure is inactive: > 100 µM; as for `NNC(=O)C(O)C(O)C(=O)NN` (stereo not given), inactive: > 100 µM.
To `O=Cc1cc(O)c(O)c(/C=N/n2c3ccccc3c3ccccc32)c1` belongs inactive: 7.21 µM; to `O=c1oc2c(Br)c(O)c(Br)cc2c2ccccc12`, inactive: 25.1 µM; to `C=C(c1ccccc1N)[C@@]1(O)C[C@H](/C(=C\C)CO)C[C@@H]1NCc1ccccc1`, inactive: 45 µM.
As to `N=C(N)NCCCC(NC(=O)OCCCCCn1ccc(N)nc1=O)C(=O)O` (stereo not given), the GI50 is inactive: > 100 µM.
As for `COC(=O)[C@@H]1CC(C(CN)c2cn(C(=O)OC(C)(C)C)c3ccccc23)C(=O)N1C(=O)OC(C)(C)C` (stereo not given in full), the figure is inactive: 83.4 µM; as for `NC1C=NNC1=O` (stereo not given), inactive: > 100 µM; as for `CCOC(=S)SSSC(=S)OCC`, inactive: > 100 µM.
Turning to `O=C(Nc1ccn(CCOC(=O)c2ccccc2)c(=O)n1)c1ccccc1`, the GI50 is inactive: > 100 µM.
Take `CCOC(=O)c1ccc(C(=O)/C(C(C)=O)=C2\CCCN2C)n1C`: the GI50 is inactive: > 100 µM.
As for `COc1ccc2c(c1)OCc1c-2oc2ccccc2c1=O`, the figure is inactive: > 100 µM; as for `CCCCC(NC(=O)CC)C(=O)O` (stereo not given), inactive: > 100 µM; as for `CC(=O)N(CCN)CCN`, inactive: > 10 µM.
As for `CC1(C)[C@@H]2CC[C@@]1(C)CN(CCC[N+](C)(C)C)C2`, the figure is inactive: > 100 µM; as for `COc1ccc(NC(=O)N(C)CC2(O)CCC(C(C)(C)C)CC2)cc1` (stereo not given), inactive: > 100 µM; as for `O=[N+]([O-])c1cc(/C=N/NS(=O)(=O)c2ccc(F)cc2)c(O)c([N+](=O)[O-])c1`, inactive: 61.5 µM.
To `Cc1ccc(/C=N/Nc2ccccn2)s1` belongs inactive: > 38.9 µM; to `c1ccc2c(c1)Nc1cccc3c1c-2nc1cc2ccccc2cc13`, inactive: 1.66 µM; to `CC(=O)OC(/C=C/c1ccccc1)=C(OC(C)C)/C1=C(\c2ccccc2)SCCCSC1=O`, inactive: > 100 µM.
Turning to `COc1ccc2c(c1)/C(=C\c1c(C)nc3sc(C)cn13)C(=O)N2`, the GI50 is active: 0.728 µM.
As to `CC1=NN(c2nc(N)nc(/C(C#N)=C/c3ccccc3O)n2)C(C)(C)C1`, the GI50 was inactive: 19.4 µM.
For `Cc1ccc(/C=C/c2n[nH]c(N/N=C/c3ccc4c(c3)OCO4)nc2=O)cc1`, the GI50 is inactive: 21.7 µM.
As for `CC(C(=O)c1ccccc1)C1(O)C(=O)Nc2ccccc21` (stereo not given), the figure is inactive: > 100 µM.
As for `COc1ccc(Cc2nc3cc(C(F)(F)F)ccc3n2C[C@@H]2CCCN3CCCCC23)cc1` (stereo not given in full), the figure is inactive: 14.1 µM; as for `COc1ccc(C2C(C(=O)O)=C(COC(C)=O)Oc3cc4c(cc32)OCO4)c(OC)c1` (stereo not given), inactive: > 100 µM; as for `CC(C)(C)c1cc(C2NCCO2)cc(C(C)(C)C)c1O` (stereo not given), inactive: > 100 µM.
To `CCOc1ccc([Se][Se]c2ccc(OCC)cc2)cc1` belongs inactive: > 100 µM; to `C[C@]12CC[C@@H]3c4ccc(OP(=O)(O)O)cc4CC[C@H]3[C@@H]1CCC2=O`, inactive: > 100 µM; to `S=C(S)N1CCN(c2ccc(Cl)c(Cl)c2)CC1`, inactive: 32.2 µM.
As to `COc1cc(CC(C)N[C@@H](C)c2ccccc2)cc(OC)c1` (stereo not given in full), the GI50 was inactive: > 100 µM.
As for `COC(=O)CC(C(C(C)=O)C(=O)OCc1ccccc1)N1C(=O)OCC1c1ccccc1` (stereo not given), the figure is inactive: > 100 µM; as for `COC(=O)C1=C(C(=O)OC)C2(OC(C)=O)c3ccccc3-c3ccccc3C12` (stereo not given), inactive: 19.3 µM; as for `N=C(N)c1csc([C@@H]2O[C@H](CO)[C@@H](O)[C@H]2O)n1`, inactive: > 100 µM.
As to `Cc1cc(=O)[nH]c(-n2[nH]c(C)c(CCO)c2=O)n1`, the GI50 is inactive: > 100 µM.
As for `Cn1cc(C(=O)NCCC(=N)N)cc1NC(=O)C1=[N+](C)C=C(NC(=O)c2cccc(C(=O)NC3=CC(C(=O)Nc4cc(C(=O)NCCC(=N)N)cn4C)=[N+](C)C3)c2)C1`, the figure is inactive: > 100 µM; as for `Nc1ccc2c(c1)C(=O)N(OS(=O)(=O)c1ccccc1)C2=O`, inactive: > 100 µM; as for `C=C1C(=O)O[C@H]2[C@H]1CC(=O)/C(C)=C/CC[C@@]1(C)O[C@@H]21`, inactive: 12.4 µM.
To `O=c1ccn(/C=C/C(O)C(O)CO)c(=O)[nH]1` (stereo not given) belongs inactive: > 100 µM.
As for `CCN(CCCl)CCCCNc1c2ccccc2nc2ccc(OC)cc12`, the figure is active: 0.789 µM.
Take `COc1ccccc1-c1cc(O)c2c(C)ccnc2n1`: the GI50 was inactive: 47.1 µM.
